Assay results reported in PubChem BioAssay AID1508642 (National Center for Advancing Translational Sciences (NCATS), 2021).
Out of some 43,000 compounds screened, about 200 (0.47%) were called active. About 12% were inconclusive and are not listed. Calls follow the shape of the dose curve; as a rule, active = well fitted cell-killing curve with a large enough effect; inconclusive = small, poorly fitted or top-dose-only effect, or effect the other way; inactive = flat fitted curve, though single readings scatter. Some of the results follow.

experiment: Cell viability qHTS assay in S16 Pmp22-F2sN cells; conditions: S16 Pmp22-F2sN Schwann cells (luciferase reporters placed in the Pmp22 gene) viability, CellTiter-Glo, 24 h; series mostly up to 57.5 µM; activity change, negative = cytotoxicity: at the top concentration; also: nearly all actives have a fitted effect of over 65% in size
Outline: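 S16 Schwann cells carrying the Pmp22-F2sN reporter, seeded in 1536-well format, were exposed to library compounds for 24 h at 37C. Viability was read as CellTiter-Glo luminescence after 15 min at room temperature.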
% is scaled to controls: 0 for no effect and ±100 for the full control effect.

| SMILES | activity change, negative = cytotoxicity |
| --- | --- |
| O=C(COc1ccccc1)Nc1ccc(S(=O)(=O)N(Cc2ccccc2)c2ccccc2)cc1 | inactive: 1.42% |
| COC(=O)CNC(=O)C(Cc1ccccc1)NS(=O)(=O)c1ccc2c(c1)c(=O)n(C)c(=O)n2C (centres undefined) | inactive: 8.08% |
| Cc1ccc(NC(=O)Cn2c(=O)n(CCCCCC(=O)NCc3ccc(F)cc3)c(=O)c3sccc32)c(C)c1 | inactive: -18.2% |
| Cc1c(Cl)cccc1NC(=O)c1cnc2sc(N3CCCC3)nn2c1=O | inactive: 4.59% |
| COCCN1Cc2cccc(C(=O)Nc3ccc(C)cc3C)c2C1=O | inactive: -0.41% |
| O=S(=O)(c1ccc2ccccc2c1)n1nc(-c2ccco2)nc1NCc1cccc(Cl)c1 | inactive: -2.4% |
| Cc1ccc(CNC(=O)c2ccc3c(c2)N(Cc2ccccc2F)C(=O)c2ccccc2S3(=O)=O)cc1 | inactive: 17.4% |
| COc1ccc(S(=O)(=O)c2cn(C)c3cc(N4CCCC4)c(F)cc3c2=O)cc1 | inactive: -11.6% |
| COc1cccc(CNC(=O)c2cnc(N3CCCC3)nc2C)c1 | inactive: 5.16% |
| Cc1ccc(-c2nnc(SCC(=O)N3CCc4ccccc43)o2)cc1 | inactive: 6.88% |
| CCCC12CN3CC(CCC)(CN(C1)C3c1c[nH]c3ccccc13)C2=O (centres undefined) | inactive: -1.06% |
| COc1ccc(-c2nc(-c3ccccc3)c(-c3ccccc3)[nH]2)cc1Br | inactive: 3.87% |
| CCn1cc(C(=O)OCC(=O)Nc2cc(C)cc(C)c2)c(=O)c2ccc(C)nc21 | inactive: -0.946% |
| COC(=O)c1scc(-c2ccc(C)cc2)c1S(=O)(=O)Nc1cccc(C(F)(F)F)c1 | inactive: -17.4% |
| COc1ccc(CCNC(=O)c2cc(-c3ccccc3)nc3ccccc23)cc1OC | inactive: 3.56% |
| CCC(=O)N1CCc2cc(S(=O)(=O)NCCC(=O)Nc3ccc(OC)c(Cl)c3)ccc21 | inactive: -10.1% |
| CCc1nnc2c(NCc3ccccc3OC)nc3ccccc3n12 | inactive: 6.68% |
| CC(C)c1nnc(N2C(=O)c3oc4ccccc4c(=O)c3C2c2cccc(O)c2)s1 (centres undefined) | inactive: 2.85% |
| CCOc1ccc(CC(=O)Nc2nnc3n2CCS3)cc1 | inactive: -2.11% |
| COC(=O)c1sc2cccc(F)c2c1S(=O)(=O)Nc1cc(OC)cc(OC)c1 | inactive: -10.1% |
| O=C(CSc1nc2ccccc2c(=O)n1CCC(=O)NC1CCCCC1)Nc1ccccc1Cl | inactive: 2.93% |
| Cc1nn(CCCC(=O)NCc2ccccc2)c(=O)c2nn(-c3ccccc3)c(C)c12 | inactive: -0.748% |
| Cn1c(=O)[nH]c(=O)c2c1nc1n(CCO)c(-c3ccccc3)cn21 | inactive: 1.54% |
| O=C(CSc1nc2c(cnn2-c2ccc(F)cc2)c(=O)[nH]1)Nc1ccc(Br)cc1 | inactive: -4.22% |
| CCCCOc1ccc(-c2cc3c(=O)n(CC(=O)Nc4ccc(Cl)cc4Cl)ccn3n2)cc1 | inactive: 0.663% |

| SMILES | activity change, negative = cytotoxicity |
| --- | --- |
| Cc1ccc(-c2nn(CC(=O)NC3CCCCC3)c3c2cnc2ccc(F)cc23)cc1C | inactive: -4.03% |
| CCOc1cccc2cc(-c3nnc(Nc4ccc(F)c(Cl)c4)s3)c(=O)oc12 | inactive: 6.18% |
| COc1ccc(C2C(C(N)=O)=C(C)Nc3nc(-c4ccccc4Cl)nn32)cc1 (centres undefined) | inactive: -16.7% |
| Cc1[nH]c2ccccc2c1C(=O)C(=O)NC1CC(=O)N(c2cccc(F)c2)C1 (centres undefined) | inactive: 21.4% |
| Cc1ccc2oc(C(=O)N(Cc3ccccc3F)C3CCS(=O)(=O)C3)c(C)c2c1 (centres undefined) | inactive: -2.79% |
| COc1cccc(NC(=O)CC2C(=O)OCCN2Cc2ccccc2)c1 (centres undefined) | inactive: -19.8% |
| Cc1cccc(C)c1Nc1c(-c2ccc(Cl)s2)nc2ncccn12 | inactive: -12.5% |
| COc1cccc(CNC(=O)c2cc(=O)[nH]c3ccc(S(=O)(=O)N4CCCCC4)cc23)c1 | inactive: -0.592% |
| CC(C)C(=O)OC1=CN(Cc2ccccc2)S(=O)(=O)c2ccccc21 | inactive: -2.91% |
| COc1ccccc1CNC(=O)c1ccc2c(c1)sc1nc(-c3ccc(F)cc3)cn12 | inactive: -2.01% |
| CCOc1ccc(CNC(=O)c2c(C)nn(-c3ccc(F)cc3)c2-n2cccc2)cc1 | inactive: 0.0231% |
| CC(=O)Nc1nonc1-c1nnc(SCC(=O)Nc2ccc(C)cc2C)n1C | inactive: 1.21% |
| COc1ccc(NC(=O)[C@@H](c2ccccc2)N2Cc3ccccc3C2=O)cc1OC | inactive: -8.1% |
| O=C(Nc1ccc(SC(F)F)cc1)c1cc(-c2ccc3c(c2)OCCO3)on1 | inactive: -9.71% |
| Cc1noc(Cn2c(=O)c3cc4c(cc3n(CC(=O)Nc3cccc(Cl)c3)c2=O)OCO4)n1 | inactive: -17.7% |
| Cc1ccc(CSCC(=O)N2CCN(c3cc(Cl)ccc3C)CC2)cc1 | inactive: -1.11% |
| Cc1ccc(-n2nc(C(=O)NCCN(C)C)c(=O)n(C)c2=O)cc1 | inactive: 11% |
| CC1CCc2c(sc(NC(=O)COc3ccccc3)c2C(=O)Nc2ccccc2Cl)C1 (centres undefined) | inactive: -1.77% |
| COc1ccc(-c2noc(-c3ccc(NC4CCCC4)c([N+](=O)[O-])c3)n2)cc1 | inactive: 8.32% |
| CCCN(CCC)C(=O)C1CCCN(S(=O)(=O)c2ccc3c(c2)oc(=O)n3C)C1 (centres undefined) | inactive: 5.88% |
| O=C(c1ccccc1)c1ccccc1NC(=O)c1ccccc1C(=O)O | inactive: -0.85% |
| Cc1ccc(-c2nc(CS(=O)CC(=O)N3CCN(c4ccccc4)CC3)c(C)o2)cc1 (centres undefined) | inactive: -0.38% |
| Cc1ccc(C(=O)c2oc3ccccc3c2NC(=O)c2cc(-c3ccccc3)on2)cc1F | inactive: 11% |
| CCN(CC)c1cc(C)c2cc(NC(=O)/C=C/c3ccc(C)cc3)ccc2n1 | inactive: 21.8% |
